Assay results as given in the supplement of paper PMC3334620.
The full ranking holds about 33,000 sequences; the median of “E-score (-0.5 to 0.5)” is about -0.011, and the highest 2% start at about 0.28. The list shows a part of the results.

Each sequence was assayed against T1, Gcr1 (UniProt P07261) (assay: PBM E-score (8-mer binding enrichment) (E-score (-0.5 to 0.5)); higher = stronger / more preferred TF binding; most listed sequences are background and not binding sites). Conditions: protein concentration: 100 nM; construct: GST-full length.
T1 sequence: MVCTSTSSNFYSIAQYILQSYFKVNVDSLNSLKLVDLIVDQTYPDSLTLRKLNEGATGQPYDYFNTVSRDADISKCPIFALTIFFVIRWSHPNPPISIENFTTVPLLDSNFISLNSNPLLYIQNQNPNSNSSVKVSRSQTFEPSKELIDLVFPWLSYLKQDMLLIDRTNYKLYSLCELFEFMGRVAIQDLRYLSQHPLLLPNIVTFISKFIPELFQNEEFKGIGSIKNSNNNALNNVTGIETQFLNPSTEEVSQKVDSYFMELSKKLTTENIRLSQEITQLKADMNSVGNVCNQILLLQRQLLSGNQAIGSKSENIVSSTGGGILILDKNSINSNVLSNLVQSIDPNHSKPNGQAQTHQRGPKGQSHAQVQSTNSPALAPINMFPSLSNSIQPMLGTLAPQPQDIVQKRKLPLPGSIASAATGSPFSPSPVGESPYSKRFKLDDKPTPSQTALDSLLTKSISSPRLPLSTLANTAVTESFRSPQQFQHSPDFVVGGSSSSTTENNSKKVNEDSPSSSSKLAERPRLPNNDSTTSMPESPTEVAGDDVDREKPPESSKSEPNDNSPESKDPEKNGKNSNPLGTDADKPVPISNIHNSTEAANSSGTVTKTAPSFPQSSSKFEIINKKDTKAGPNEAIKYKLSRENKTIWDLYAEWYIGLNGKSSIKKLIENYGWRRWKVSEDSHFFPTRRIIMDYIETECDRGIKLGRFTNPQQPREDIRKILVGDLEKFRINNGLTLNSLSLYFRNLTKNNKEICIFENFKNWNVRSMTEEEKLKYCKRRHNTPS
Outline: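 Yeast transcription factors carrying a GST tag, as full-length proteins or DNA-binding domains, were produced by PURExpress in vitro transcription/translation. About 100-200 nM protein was applied to universal all-10-mer Agilent arrays, double-stranded by primer extension on fresh or once-stripped slides. Bound protein was detected with fluorescent anti-GST, and scans were normalised with masliner. The Universal PBM Analysis Suite gave each ungapped eight-base word, pooled with its reverse complement, an E-score, a modified Wilcoxon-Mann-Whitney statistic.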

Row | Sequence | PBM E-score
1 | ACTAGATC | -0.0833
2 | ATGCGTGG | -0.0381
3 | CCCGGCAG | -0.0696
4 | CAAGGATC | 0.0598
5 | AGACCGTA | 0.00692
6 | TCGCTTAA | -0.0599
7 | AAAGTGTA | 0.113
8 | TTGAACAA | -0.112
9 | GATCGTAA | -0.0978
10 | CCGAGATC | -0.0078
11 | CAGAACCA | 0.0465
12 | AAAAGATG | 0.143
13 | ATTACAGC | -0.134
14 | ACGCATTG | -0.0938
15 | ATTAGAAT | 0.203
16 | AACGCGAT | -0.0214
17 | CTGCAAAA | 0.0951
18 | CGCCAGAG | -0.0121
19 | CATGGGCC | -0.111
20 | GACGTCGC | 0.104
21 | GACAAGAA | 0.133
22 | AAAACCTT | -0.0617

Row | Sequence | PBM E-score
23 | CCCAACTC | -0.0243
24 | CAAGGTTC | 0.0262
25 | ACCGACGA | -0.132
26 | GTCCCGAC | -0.134
27 | GTGCTGAA | -0.146
28 | GGAAGTAC | -0.0615
29 | TACCAGTA | 0.224
30 | CTATCCTC | -0.0878
31 | ATATCGGC | -0.0473
32 | AGGTAGAT | 0.036
33 | CCCTTCCG | -0.286
34 | ATATATCC | 0.0296
35 | ACCGCGGT | -0.332
36 | GAAGACTC | -0.104
37 | TATTAAAA | 0.243
38 | GGTCGTAC | -0.13
39 | GGGTGGAA | -0.113
40 | CATTAGGA | 0.0896
41 | CTCTAGAG | 0.176
42 | ACTGTTAA | -0.142
43 | ACAGCTCT | -0.296
44 | AAAAAGTA | 0.266

Row | Sequence | PBM E-score
45 | CCCTTTAC | -0.0491
46 | AATCTGCG | 0.23
47 | AACAGTAA | -0.028
48 | ACTAGAGT | -0.0359
49 | ATCGAGGC | -0.0857
50 | GTGGGCCA | -0.153
51 | CATCGTCA | -0.0259
52 | GTTCAGCA | 0.0491
53 | AGGAAAAG | 0.0223
54 | GTCTGTCA | -0.0863
55 | CCCTCTGA | -0.208
56 | AATGGATA | 0.0985
57 | AACTTTCG | -0.0803
58 | ACGCCCGC | 0.105
59 | CAACGATG | -0.131
60 | GATGACAC | 0.0557
61 | ACAGAATC | 0.0851
62 | AGATGTAT | 0.241
63 | CACCTGCC | -0.127
64 | GACTGAAC | -0.185
65 | CGTCAGGA | -0.00623
66 | GATGTACA | -0.207

Row | Sequence | PBM E-score
67 | GGTCCAAC | -0.104
68 | AATCGCGG | 0.0114
69 | ACCTGGTG | 0.0891
70 | AAAGGAGT | 0.0408
71 | ACACGTGA | -0.063
72 | AAACGAGG | -0.0367
73 | ACCGCTAG | -0.0856
74 | AACTTGTC | -0.0731
75 | CAGTAGCG | -0.0886
76 | TAACTCGA | -0.0164
77 | CTAGGTAA | -0.326
78 | ACTGCGAC | 0.0788
79 | TATATTAA | 0.236
80 | AGGTGGAG | -0.121
81 | GAAACAAA | -0.0788
82 | CTAGCTAG | -0.157
83 | CGATGCGA | 0.0626
84 | AACCGCGC | -0.218
85 | GAAGTTCA | 0.129
86 | AACCAGGT | 0.0282
87 | ACTTTCGC | 0.0656
88 | AGGGCCGC | -0.136

Row | Sequence | PBM E-score
89 | AGCTCTGA | -0.184
90 | AATAGCAT | -0.00985
91 | AGCGACCT | 0.164
92 | GCTAGTCC | -0.0924
93 | AATTCTCA | 0.0164
94 | AAAGAAAG | -0.023
95 | AGACGACC | 0.00881
96 | GAATTACC | 0.0718
97 | GGCTGCCC | 0.272
98 | GTACGGAC | -0.176
99 | ACGAGCGG | -0.00855
100 | AGGAGCGC | 0.0762
101 | GGCTGATA | -0.108
102 | CCGGTTGA | 0.0186
103 | TGCAAAAA | 0.156
104 | GGGGATTA | 0.0228
105 | ATCGTGGC | -0.103
106 | ATTTCTCG | 0.149
107 | CGAGTATC | 0.0473
108 | ATCCCGGA | 0.08
109 | CAACCAGC | -0.0265
110 | ACAGGGGG | -0.0522
